Our source for the binding signal (log2 normalized intensity) values is publication PMC10726135.

The other results are listed elsewhere or left out. At the low end of the ranking the order means little. The protein was read in a cell extract, so binding may be indirect.

The target of the experiment is T1, HNF4alpha8 (COS-7 nuclear extract) (UniProt P41235-5).
T1 sequence: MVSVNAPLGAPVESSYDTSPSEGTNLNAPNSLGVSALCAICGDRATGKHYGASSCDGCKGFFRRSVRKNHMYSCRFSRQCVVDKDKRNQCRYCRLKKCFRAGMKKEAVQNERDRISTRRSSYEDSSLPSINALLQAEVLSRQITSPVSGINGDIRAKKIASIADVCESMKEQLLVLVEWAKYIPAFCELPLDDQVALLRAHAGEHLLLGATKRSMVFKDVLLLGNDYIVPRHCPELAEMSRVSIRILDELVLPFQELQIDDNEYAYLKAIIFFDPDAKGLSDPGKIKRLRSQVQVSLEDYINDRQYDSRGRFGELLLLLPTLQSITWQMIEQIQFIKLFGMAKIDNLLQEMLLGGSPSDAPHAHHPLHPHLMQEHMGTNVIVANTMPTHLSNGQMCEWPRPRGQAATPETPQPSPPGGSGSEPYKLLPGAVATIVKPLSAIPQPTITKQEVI
The experiment can be described thus: protein-binding microarray. The note with it: COS-7 nuclear extract on double-stranded Agilent 4x180k PBM; binding buffer, salt, pH and temperature not given; high values mean tight binding; double strand, one strand shown; sequences stand for … in …GCCTAGGGAGATTAGAGTATCGGTCGA
CAGCTCCTCTCCTCCATGGCCTGGGGCCCT: the binding signal (log2 normalized intensity) was -1.29.
The result for ACACACTCACGGACCCTGTTACCACACCAC reads -0.557.
The result for CAAATTTATATCAGAGGAATGTCTGACCAA reads 1.17; that for TGTAAACATGTGAGGAAGGCTCTTTGTTCA, 0.621.
The result for CCGCCGCTAGGTGGCGGGCTGGCTCAGGAC reads -1.37; that for ACCTTTGGTTAACTTCTTAACTTGGTTTCC, 1.23; that for GGCCTCCCCATCCTCATGACAGTACCTCTC, 2.55.
As to GCAGCTAGCTCCAGTTGGTTGCTAAGAGAC, the binding signal (log2 normalized intensity) is -1.38.
As for TCCCAAGCATGTTTGGTGACCCGTGACCCT, the figure is 5.63; as for CTCCTCCTCGTGAGTTGGAGACAGGAGAGG, -1.18.
As for GACCCTTCATAGCTTACTTGACAAATGGGG, the figure is 1.02; as for GGAATGTGACCTTAGACCCCTGAATAGGTC, 5.67.
The result for AGTCAGTTTAGTCCTGGATGACCCAGATAG reads 1.97; that for TAGATAGGAATCTGGATGGCTGAGCTGTAA, -1.01; that for ATTTACCGTCTCTCACCAAATCCCTGCCCA, 0.677.
ACTGTTTGTGCAGAGGAGATCAGAGGAGGC: the binding signal (log2 normalized intensity) was -1.33.
The result for GACTCAGCTCCCATAGAGTCCACCACTGAC reads 1.18.
For ACCACAAAGCAGTGAGTGAAACATCCCACT, the binding signal (log2 normalized intensity) was -1.37.
The result for GCAGGGCTACTGTGGTTCCCAAGAAGAGCC reads -1.34.
As for AAGTTTAATCCTCTCACCCAAGATCAAAGA, the figure is 2.82; as for TCTGCTACTAACTGCATGACTTCAGAAAGT, -1.22.
With AAAGGATCAACTTTCAGAAGGGGACAAGCA, the binding signal (log2 normalized intensity) is -1.29.
Regarding GAAGGCTCCCAAGGTATCCTCCTAGAGTCC, the binding signal (log2 normalized intensity) was 1.07.
The result for ACAAATTAGACAAGGTTTGTAACAAGTGCT reads -1.36; that for CGAAGAGCAGCCAGCTGCAGAGGAAGGACA, -1.28.
The result for GACGACTGTCTGCCATGGGCCTGGCTGAGC reads -1.22; that for AACTACAGTTGACCTTTGAACACCACAAGT, 8.13.
As for ATACAAACAAATTGTGTGCAACAGGAGCCC, the figure is -1.36; as for TTACTTTTGCAAGGTTTGTTCTTATCATGC, 0.712; as for CAGTTTATTTACTGTCCTCAAACTGTCACC, 0.783.
In the case of CAGATCACATTGTTTTGGAGTTAGCTGTCT, the binding signal (log2 normalized intensity) worked out at 0.651.
As for CCCAGTTGCCTTCCTGTTAGATAGAGGAGT, the figure is -0.191; as for CAGGTGTGTGGCATCTTGGGGTCAAGGCCT, 3.43; as for ACCTTATCAAGTCCGAACTCACTACAAACG, -1.29.
As for AGCTCTTGGGGAACAATCGCCACTGATTGA, the figure is -1.4; as for TTGAGGCCTTCGTTGGAAACGGGATTTCTT, -1.13.
In the case of AGAGGGAAGACCAAAGGCCAAAGAGCAAAG, the binding signal (log2 normalized intensity) came out at 1.1.
As for CACCTCTTCAGATAGCCTTTGCCTCCACCT, the figure is 1.24; as for TTTGGTGAGGCCCCAGTGTCAATTCTCATT, 1.38.
As for ATTGATTGGGACCTGAGAACAAACAATGGT, the figure is -0.195.
As for CAGGTGCTGGGATGATTCCCTTATCTTCTC, the figure is 0.155; as for GCCCCTGATGTGATGTAATCAAATGTACAC, 2.06.
For CCCATCTGGGACTTCAAAGCGCAGCGCGGG, the binding signal (log2 normalized intensity) is -1.18.
The result for CAATCAGAAACCGGGCCAATGGGTTCCCTG reads -1.34.
As for CCGGAATTTCCTCCTGGCAGAGCATAGAAG, the figure is -1.35; as for AGTGTGACTCATCAATCTGGAATTACCTGT, 0.605.
The result for CAATTTCCAGGAGTATGTGTTTGCTTTACC reads 0.577.
Turning to GAAGAGACAGCTGGGCCCTGCCTGACCTGC, the binding signal (log2 normalized intensity) was 1.81.
As for CGAGCACGGTGCAGGGAGGATATCCCTCCG, the figure is -1.21; as for CTGCAAGGTTTGTGTACGGACGCATCTGTC, 0.564; as for CATATTTTGAAAGAAAGAGACCTTTACCCT, 5.96.
As for GCTTAAATTCTTGTATGCTTAACTATGTTT, the figure is -0.443; as for ATACAAGCTAATCTGACCAAGTGAACTGTG, 2.05; as for CTTAGCAGGATTCTTGCTGCAGCTGGGCTA, -1.37.
As for TTCTTTGGTTGGGAATAACATTGTGTAGTT, the figure is 1.04; as for ACGCAGGGCGGCCGGCGGAGCGCCGAGCAG, -1.22; as for TTCCCTTGGAATGCCAGATGACCTTTGCCC, 10.2.
Regarding GTGGTCCTAAGACTGACCTTTGATCATTTG, the binding signal (log2 normalized intensity) was determined as 9.52.
The result for AACAGTGAGCCCAGTGGAGTAGGCTTTAGA reads -1.29; that for GGCTTGTACCTTGACCTTCTCTGTTAACCC, 4.96; that for ATTTTGGACTTTGTGCAAATGGAAAATTGT, 3.52.
With TAAGATTGAGAACTTTGACACCGAGGCATA, the binding signal (log2 normalized intensity) amounted to 1.97.
The result for CCTTGCCACCCACACTGCAGCAAAACTTTA reads -0.731.
As for CAGAAAAGGCTGTAAACTCACTCTGGGAAA, the figure is -1.32; as for GGGCTACCGATATGAGGCTTCCATTCTCAG, -1.33; as for TCTCATTTCTGAACACTCCAAGGTGTCCAG, 0.334.
Take TGGACAGAAATATCAGCAAGGAAATAAAAG: the binding signal (log2 normalized intensity) is -1.39.
Consider AGCCAATAGGCGAGGACGCAGTCCCGCGTG, for which the binding signal (log2 normalized intensity) is -1.27.
As for AGTCCAGAGTTTGTGGCTCCATACTCCTTA, the figure is -1.15; as for ACACCTCTTCTTTCTTCTCTGGTACCCTGG, 1.92; as for ACCTAGTAGGCACAAAGGTGCAAAGTACAT, 5.14.
As for CACAATGTCAGTGAGGCCAAAAGGTGCTAC, the figure is -1.28; as for TAAGTGTGGGTTTAAGTAAGCCCCCTTCCC, 4.85.
